# According to PMC4336329 (PLoS ONE, 2015):
# Out of some 310,000 compounds screened, about 2,200 (0.71%) showed an effect of 50% or more. The effect is printed as a negative number. The list shows a part of the results.
# Molecular target: human ether-à-go-go-related gene (hERG) potassium channel (human, UniProt Q12809)
# Assay: primary screen, population patch clamp on CHO cells stably expressing hERG
# Chain of human ether-à-go-go-related gene (hERG) potassium channel (Q12809 whole entry, looked up): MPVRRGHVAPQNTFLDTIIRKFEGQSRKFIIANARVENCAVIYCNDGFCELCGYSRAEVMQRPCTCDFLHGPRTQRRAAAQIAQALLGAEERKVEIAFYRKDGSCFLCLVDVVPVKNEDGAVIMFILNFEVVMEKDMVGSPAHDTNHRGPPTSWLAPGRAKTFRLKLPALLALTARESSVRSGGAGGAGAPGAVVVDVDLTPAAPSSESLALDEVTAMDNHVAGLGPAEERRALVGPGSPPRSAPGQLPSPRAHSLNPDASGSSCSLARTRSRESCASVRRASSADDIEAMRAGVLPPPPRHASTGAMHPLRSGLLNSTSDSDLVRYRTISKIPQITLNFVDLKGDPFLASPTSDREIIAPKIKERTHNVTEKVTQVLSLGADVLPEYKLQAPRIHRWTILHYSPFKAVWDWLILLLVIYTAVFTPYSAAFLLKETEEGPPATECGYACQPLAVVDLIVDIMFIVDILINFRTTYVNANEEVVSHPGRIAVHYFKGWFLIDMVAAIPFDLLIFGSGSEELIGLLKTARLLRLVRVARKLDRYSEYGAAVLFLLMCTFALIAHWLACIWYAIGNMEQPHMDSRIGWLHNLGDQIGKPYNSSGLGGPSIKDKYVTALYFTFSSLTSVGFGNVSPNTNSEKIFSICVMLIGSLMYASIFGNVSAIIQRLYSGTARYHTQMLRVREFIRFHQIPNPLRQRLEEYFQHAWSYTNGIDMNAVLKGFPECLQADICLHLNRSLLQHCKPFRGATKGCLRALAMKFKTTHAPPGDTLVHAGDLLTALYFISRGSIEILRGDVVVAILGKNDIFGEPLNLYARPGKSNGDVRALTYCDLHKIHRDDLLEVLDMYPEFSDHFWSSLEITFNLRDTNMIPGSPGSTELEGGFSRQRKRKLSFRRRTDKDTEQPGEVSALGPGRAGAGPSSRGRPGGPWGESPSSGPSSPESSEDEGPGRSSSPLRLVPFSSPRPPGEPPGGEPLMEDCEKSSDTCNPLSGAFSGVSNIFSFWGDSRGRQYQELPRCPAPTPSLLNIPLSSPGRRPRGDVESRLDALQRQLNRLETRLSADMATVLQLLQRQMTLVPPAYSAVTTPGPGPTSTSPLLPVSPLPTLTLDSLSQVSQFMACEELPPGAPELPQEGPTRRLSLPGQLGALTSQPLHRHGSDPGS
row,Compound,"hERG current change (%, negative = inhibition) at 1uM"
1,Cc1nc2ccc(NC(=O)N(C)c3ccccc3)cc2s1,-0.205%
2,O=C(CN(C(=O)CCC(=O)Nc1ccccn1)c1ccccc1F)NCc1ccc2c(c1)OCO2,9.34%
3,CC(C)(C)S(=O)(=O)c1c(C(=O)O)cccc1C(=O)O,5.13%
4,Cc1cccc(C(=O)NCCCNC(=O)c2ccc(C)nc2)c1,10.6%
5,C/C(CCC(=O)O)=N/Nc1ccc([N+](=O)[O-])cc1[N+](=O)[O-],-3.18%
6,Cc1cc(C)c(C)c(S(=O)(=O)NCCCN2CCOCC2)c1C,13.6%
7,O=C(Nc1c[nH]c2c(Cl)cccc2c1=O)N1CCN(c2ccccn2)CC1,17%
8,Cc1c(C(=O)N2CCN(Cc3ccc4c(c3)OCO4)CC2)cccc1[N+](=O)[O-],4.18%
9,Fc1cccc(Nc2nc(N3CCOCC3)nc(N3CCOCC3)n2)c1,6.73%
10,CS(=O)(=O)Nc1ccc(C(=O)NCc2ccccn2)cc1,11%
11,O=C(c1cc(-c2cccnc2)nc2ccccc12)N1CCCc2ccccc21,5.69%
12,COc1ccccc1CNS(=O)(=O)c1ccc2c(c1)NC(=O)C(C)S2 (centres unmarked),1.23%
13,CC(CNC(=O)CN1C(=O)NC2(CCCCC2)C1=O)c1ccccc1 (centres unmarked),4.87%
14,CCn1c(NC(=O)C(C)C)c(-c2cccs2)c(=O)c2ccccc21,11.3%
15,COc1ccc(CCNC(=O)[C@H](C)NC(=O)[C@@H]2CSC3c4ccccc4C(=O)N32)cc1 (some centres unmarked),9.13%
16,CC(C)N1CCN(Cc2cccn2-c2ccccn2)CC1CCO (centres unmarked),-16%
17,Cc1ccc(CS(=O)(=O)Cc2ccc(C(=O)NCC3CCCO3)o2)cc1 (centres unmarked),12.1%
18,CCCS(=O)(=O)N1CCC(C(=O)NCCc2ccccc2)CC1,7.22%
19,N#C/C(=C(/O)c1ccc(Br)s1)c1nc2ccccc2[nH]1,11.7%

row,Compound,"hERG current change (%, negative = inhibition) at 1uM"
1,Nc1nncn1C(=O)c1ccccc1Cl,9.68%
2,O=C(CCCCn1c(=O)c2ccccc2n(CC(=O)NC2CCCC2)c1=O)NC1CCCC1,10.8%
3,O=C(COC(=O)CCC(=O)c1cccs1)Nc1cccc(F)c1,9.11%
4,CCCSc1nc(SCC(=O)NCc2ccccc2)c2c3c(sc2n1)COC(C)(C)C3,7.08%
5,Oc1ccccc1-c1cc(-c2ccco2)[nH]n1,11.4%
6,CCC(=O)c1ccc(OCc2ccc(C#N)cc2)cc1,19.5%
7,Cc1ccc(S(=O)(=O)N/N=C\c2cc3c(cc2[N+](=O)[O-])OCO3)cc1,18%
8,COc1ccccc1Nc1nc(N)nc(CN2CCN(Cc3ccc4c(c3)OCO4)CC2)n1,-79.8%
9,COc1ccccc1-n1nnnc1SCC(=O)Nc1oc(C)c2c(C)n[nH]c(=O)c12,10.9%
10,CC(C)Sc1cc(N2CCCC2)nc(-c2ccccc2)n1,-26%
11,C/C(CC(=O)Nc1ccc2c(c1)OCCO2)=N\NC(=O)COc1ccc(C)cc1,10.1%
12,CCNc1sc(C(=O)c2cccs2)c(N)c1-c1nc2ccccc2s1,15.9%
13,CN(C)c1ccc(P(=O)(CC(=O)N/N=C/c2ccc(C#N)cc2)OCCCl)cc1 (centres unmarked),0.413%
14,Cc1ccc(C)c(S(=O)(=O)C(C#N)c2nc3ccccc3nc2N2CC(C)OC(C)C2)c1 (centres unmarked),4.08%
15,O=C(COc1ccc(C2SCCS2)cc1)NNC(=O)C(Cl)Cl,15.2%
16,Cc1ccc(Sc2nc(-c3ccccc3)ccc2C#N)cc1,8.67%
17,O=C(Nc1cccc(C(F)(F)F)c1)c1ccccc1NC(=O)C1CCCCC1,7.46%
18,CN(C)/C=C(\C(=O)c1cccc(Cl)c1)c1nnnn1-c1ccccc1,14.3%
19,CSc1ncc(-c2ccc(Cl)cc2)[nH]1,4.48%

row,Compound,"hERG current change (%, negative = inhibition) at 1uM"
1,Cc1nnc(SCC(=O)N/N=C/c2cc(Cl)c(O)c(Cl)c2)s1,11.6%
2,Cc1csc(NC(=O)c2cccc([N+](=O)[O-])c2C(=O)O)n1,13.5%
3,O=C(NN=C(Cc1ccccc1)Cc1ccccc1)c1ccccc1F,12.1%
4,CC(C(=O)N1CCc2ccccc21)N(C)CC(=O)Nc1cccc(F)c1 (centres unmarked),-0.982%
5,Cn1nc(C(=O)Nc2cccc(C(=O)NC3CC3)c2)c2ccccc2c1=O,4.45%
6,O=C(NCCS(=O)(=O)N1CCN(c2ccc(F)cc2)CC1)c1ccco1,-22.7%
7,CC(=O)c1c(C)[nH]c(C(=O)OCC(=O)NCc2ccc(Cl)cc2)c1C,7.96%
8,Cc1ccc(S(=O)(=O)NCc2cn3ccccc3n2)c(C)c1,14.9%
9,COc1ccccc1NC(=O)c1sc2nc(Cc3ccccc3)cc(C(F)(F)F)c2c1N,-0.71%
10,COc1ccccc1C(=O)C1CCCN(C(=O)c2cc(C(C)C)no2)C1 (centres unmarked),-0.256%
11,COc1ccc(C(=O)NC(=S)NCc2ccc(-c3nc4ccccc4o3)cc2)cc1OC,8.57%
12,Cc1sc(NC(=O)CCCCC(=O)Nc2sc(C)c(C)c2C(=O)O)c(C(=O)O)c1C,4.53%
13,O=C(NCCc1ccccc1)c1ccnc(/C=N/O)c1,-2.66%
14,COc1ccc(N2CCN(S(=O)(=O)c3c[nH]c(=O)[nH]c3=O)CC2)cc1,16.8%
15,CCC(C)NC(=O)CSc1nc2c(sc(=S)n2-c2cc(Cl)ccc2OC)c(=O)[nH]1 (centres unmarked),13.6%
16,Cc1ccc(N(C(=O)c2ccccc2Cl)C2=NC(C)CS2)c(C)c1 (centres unmarked),9.22%
17,O=C(Nc1ccc(Br)c(Cl)c1)C1CC1,2.32%
18,O=C(CSc1ccc2ccccc2c1)Nc1nc2ccccc2[nH]1,6.91%
